Experimental data as given in PMC5540273 (PLoS ONE, 2017).
For part of these data: What follows is the remainder of the data, with few or none of the strong results. The list shows a part of the results, in another mix than the full data.

Experiments:
Conditions in all cases: concentration: 1 μM,replicates: in singlicate; n = 1
YSK1 = tested on: T1, YSK1
T1 construct: gene STK25

YSK4 = tested on: T2, YSK4
T2 construct: gene MAP3K19

ZAK = tested on: ZAK
ZAP70 = tested on: ZAP70
p38-alpha = tested on: T3, p38-alpha
T3 construct: gene MAPK14

p38-beta = tested on: T4, p38-beta
T4 construct: gene MAPK11

p38-delta = tested on: p38-delta
p38-gamma = tested on: T5, p38-gamma
T5 construct: gene MAPK12
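Further: KINOMEscan kinase panel screen.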

SMILES | %Inh (YSK1) | %Inh (YSK4) | %Inh (ZAK) | %Inh (ZAP70) | %Inh (p38-alpha) | %Inh (p38-beta) | %Inh (p38-delta) | %Inh (p38-gamma)
O=C1NC(=O)C(c2ccccc2)=C1Nc1ccc(Cl)c(C(=O)O)c1 [SB-390532] | 0% | 49% | 16% | 41% | 38% | 0% | 47% | 11%
CS(=O)(=O)c1ccccc1-c1nc(-c2ccc(F)cc2)c(-c2ccncc2)[nH]1 [SB-213663] | 0% | 0% | 28% | 33% | 98.1% | 33% | 10% | 52%
Cc1ccc(C)c(Oc2nccc(-c3c(-c4ccc(F)cc4)ncn3C3CCNCC3)n2)c1.O=C(O)C(F)(F)F.O=C(O)C(F)(F)F.O=C(O)C(F)(F)F [SB-284852] | 0% | 15% | 16% | 0% |  | 89% | 2% | 36%
COc1ccc(C2=C(Nc3cccc(Cl)c3)C(=O)NC2=O)cc1 [SB-326892] | 0% | 11% | 20% | 0% | 2% | 7% | 19% | 0%
O=C1NC(=O)C(c2ccccc2)=C1Nc1cc(Cl)c(O)c(Cl)c1 [SB-390530] | 0% | 0% | 0% | 0% | 0% | 4% | 7% | 0%
O=C1NC(=O)c2c1c(-c1ccccc1)cc1[nH]c3ccc(O)cc3c21 | 8% | 100% | 3% | 6% | 9% | 25% | 12% | 23%
O=C1NC(=O)C(c2ccc(Cl)cc2)=C1Nc1ccccc1 [SB-317661] | 3% | 43% | 0% | 100% | 0% | 0% | 0% | 0%
O=C(O)c1ccc(-c2nc(-c3ccc(F)cc3)c(-c3ccncc3)[nH]2)cc1 [SB-202620] | 30% | 12% | 37% | 0% | 100% | 97.7% | 0% | 53%
Cc1cc(C)cc(Oc2nccc(-c3c(-c4ccc(F)cc4)ncn3C3CCNCC3)n2)c1.O=C(O)C(F)(F)F.O=C(O)C(F)(F)F.O=C(O)C(F)(F)F [SB-284851] | 0% | 0% | 15% | 1% |  | 34% | 0% | 52%
O=C1NC(=O)C(c2ccccc2Cl)=C1Nc1cccc(C(=O)O)c1 [SB-390526] | 3% | 0% | 4% | 0% | 13% | 0% | 0% | 0%
COc1cccc(C2=C(Nc3ccc(SC)cc3)C(=O)NC2=O)c1 [SB-331032] | 0% | 37% | 5% | 0% | 0% | 14% | 2% | 0%
O=C1NC(=O)C(c2ccccc2Cl)=C1Nc1ccccc1 [SB-376715] | 12% | 3% | 5% | 0% | 0% | 0% | 22% | 2%
O=C1NC(=O)C(c2ccc(Cl)cc2)=C1Nc1cccc(O)c1 [SB-333613] | 0% | 43% | 0% | 29% | 0% | 1% | 0% | 54%
O=C1NC(=O)C(c2ccc(Cl)cc2)=C1Nc1cccc(C(=O)O)c1 [SB-360737] | 0% | 43% | 24% | 51% | 0% | 0% | 42% | 0%
CSc1ccc(NC2=C(c3cccc(Cl)c3)C(=O)NC2=O)cc1 [SB-341528] | 0% | 0% | 0% | 0% | 0% | 0% | 0% | 19%
O=C1NC(=O)C(c2ccc(Cl)cc2)=C1Nc1ccc(O)c(Cl)c1 [SB-405367] | 6% | 0% | 0% | 33% | 1% | 1% | 6% | 26%
